# Among all 120,000 compounds or so, about 5,300 (4.4%) were called active. The inconclusive results got no clear call from the source; some entries with a clear call stand among them for comparison. Calls come from the whole dose curve; as a rule, active = well fitted inhibition curve with a large enough effect; inconclusive = small, poorly fitted or top-dose-only effect; inactive = no such curve, though single readings can be large or run the other way. Potencies of inconclusive entries are doubtful fits and often do not repeat.
# Assay: qHTS Primary assay for Inhibitors of Plasmodium falciparum Dd2 growth in vitro; note: nearly all actives have a fitted effect of over 65% in size;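 for activity, negative = inhibition: plate controls were DMSO vehicle for no effect and reference drug for full effect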
# Details: P. falciparum Dd2 growth, SYBR Green, 72 h; activity, negative = inhibition: at 28.9 µM (top of the series) unless noted; series mostly up to 28.9 µM
# Source text: Malaria, a parasitic disease spread to humans through the bite of a Plasmodium infected Anopheles mosquito, continues to be a global health burden affecting millions of people, with an estimated 228 million cases and 405,000 deaths in 2018. Concerns about safety and limitations of current antimalarial treatments strongly emphasize the need to develop new therapeutic options. The scarce number of chemotypes and validated drug targets with efficacy against the liver stage, have hindered development of new antimalarials. To address this, a chemoprophylactic drug discovery effort was conducted through a combined phenotypic high-throughput asexual blood stage and liver stage screen, providing a robust foundation to identify liver-stage active lead chemotypes. Compounds were initially screened against Plasmodium falciparum Dd2 strain parasites using a in vitro SYBRGreen-1 based 72 hr proliferation assay to identify novel chemotypes to advance to liver stage assays. NIH/NCATS Early Translation Branch Assay Submitter (PI): Anton Simeonov Ph.D.
# Malaria-vivax Assay Protocol: PROTOCOL TABLE (as described by Inglese et al., 2007) SEQUENCE No. (e.g., 1, 2, 3, etc.); […] (e.g., Cells, Incubation, Reagent, etc.); VALUE; DESCRIPTION SEQUENCE, Parameter, Description 1; Reagent; 3 uL complete malaria growth medium, 1536 TC treated Black clear bottom plate 2; Controls; 23 nL positive control artesunate (300 nM final) to column 1; Neutral control DMSO to columns 2-4 3; Compound; 23 nL of compounds in dose response concentration (29 uM to 0.5 nM final) 4; Reagent; 5 uL malaria infected red blood cells (2.5% hematocrit final, 0.3% parasitemia 5; Time; 72 hours at 37C (5% O2, 5% CO2, 90% N2; 95% Rh) 6; Reagent; 2 uL lysis buffer/SYBRGreen-1, 25 sec shake immediately following dispense 7; Time; ~16 hours at 37C (5% O2, 5% CO2, 90% N2; 95% Rh) 8; Detector; EnVision (PerkinElmer) bottom read at 485/14nm excitation and 535/25 nm emission NOTES (numbers refer to sequence above): 1; Complete Malaria Growth Media: 1X RPMI-1640 w/L-glutamine, 5.5g/L Albumax II, 367 uM Hypoxanthine, 25 mM HEPES, 0.25% Sodium Bicarbonate, 35 uM Gentamicin sulfate 2; Controls were added using the Kalypsis Pintool (Wako USA) equipped with 1536 pinhead 3; Compounds were added in a 7-point, titration with a high final concentration of 29 uM by Pintool from seven inter-plate titrations of library plates and two DMSO control plates at the beginning and end (see Yasgar et al., 2008). 4; Red blood cells infected with Plasmodium falciparum Dd2 parasites were used. 6; Lysis buffer: 20 mM Tris-HCl, 10 mM EDTA, 0.16% Saponin, 1.6% Triton-X, 10X SYBR Green. REFERENCE: Inglese J, Shamu CE, Guy RK. 2007. Reporting data from high-throughput screening of small-molecule libraries. Nat Chem Biol. doi:10.1038/nchembio0807-438 Yasgar A, Shinn P, Jadhav A, Auld D, Michael S, Zheng W, Austin CP, Inglese J, Simeonov A. 2008. Compound Management for Quantitative High-Throughput Screening. J Lab Autom 13:79-89. doi:10.1016/j.jala.2007.12.004
# Potency is the fitted concentration of half-maximal effect; tags give direction and shape of the fitted curve.
SMILES,Potency,outcome,"activity, negative = inhibition"
O=C(CN1C(=O)C2(SCC(=O)N2c2cccc(F)c2)c2ccccc21)NCCc1ccccc1 (configuration not stated),"inconclusive: 10 µM [inhibitor, single point]",,
Cc1nn(-c2ccc(C(F)(F)F)cc2)c(C)c1[C@@H]1C=C[C@@H](NC(=O)Nc2ccccc2)C1,active: 11.2 µM,,
COc1cc(NC(=O)CCC2CCCN(Cc3nc(C(C)C)cs3)C2)cc(OC)c1 (configuration not stated),"inconclusive: 20 µM [inhibitor, single point]",,
CCOCC(=O)N[C@H]1CN(Cc2nc(C)c(C)n2C)C[C@@H]1C(C)C,inactive,,
O=C(O)C1(c2ccccc2)CCN(S(=O)(=O)c2cc(C(F)(F)F)cc(C(F)(F)F)c2)CC1,"inconclusive: 17.8 µM [inhibitor, single point]",,
COc1cccc(S(=O)(=O)N2CCC(n3c(C)cnc3C3CC3)CC2)c1,"inconclusive: 1.58 µM [inhibitor, partial curve, poor fit]",,
CC(=O)Oc1c(-c2ccc(NC(=O)CC(C)C)cc2)c(-c2ccc(F)cc2)nn1-c1ccc(F)cc1,"inconclusive: 1.58 µM [inhibitor, full curve, poor fit]",,
CC(=O)N1CCC(C(=O)N2CCC3(CC2)NCc2ccccc2-n2ccnc23)CC1,,inactive [at 5.79 µM],
CCNC(=O)CN1CCN(c2nccc(C3CCCC3)n2)CC1,"inconclusive: 8.91 µM [inhibitor, partial curve]",,
CC(C)C1=NOC2(CCN(Cc3ccccc3)C2)C1 (configuration not stated),,,inconclusive: -73% [inhibitor] [at 44.1 µM]
O=C(c1ccccc1)N1CCOc2ccc(CN3CCc4ccccc4C3)cc2C1,active: 7.94 µM,,
CN(CCc1ccccc1)CC[C@@H]1CC[C@H](O)[C@@H](C(=O)N(C)Cc2ccccc2)O1,"inconclusive: 2 µM [inhibitor, partial curve, poor fit]",,
O=C(Nc1ccc(C(=O)N2CCN(c3ccccc3F)CC2)cc1)c1nsc2ccccc12,inactive,,
CCOc1ccc(-c2cc(C(=O)NC(C)c3ccccc3)c3ccccc3n2)cc1 (configuration not stated),"inconclusive: 11.2 µM [inhibitor, single point]",,
Cc1ccc2c(c1)N1C(=O)OC[C@@H]1CCN(C(=O)Nc1ccccc1)C2,inactive,,
O=C(c1ccc(F)cc1)N1CCC(Cc2nc(-c3ccccc3)no2)CC1,"inconclusive: 17.8 µM [inhibitor, single point]",,
CCOc1ccccc1CN1CCc2nc(N3CCN(C)CC3)ncc2C1,"inconclusive: 17.8 µM [inhibitor, single point]",,
O=C(NCCc1ccccc1)C1CCN(Cc2cc3ccccc3n2Cc2ccccc2)CC1,"inconclusive: 17.8 µM [inhibitor, single point]",,
COc1ccc(-c2cn3cccnc3n2)cc1NC(=O)Nc1cc(C)ccc1C,active: 11.2 µM,,
O=C(Cn1ncc2c3ccccc3n(Cc3cccc(Cl)c3)c2c1=O)NCCCN1CCCCC1,"inconclusive: 7.94 µM [inhibitor, partial curve]",,
CCOCCCNc1nc2c(S(=O)(=O)c3ccc(CC)cc3)nnn2c2ccc(Cl)cc12,inactive,,
CNc1ncc(CN(C)C(=O)CCc2cc3n(n2)CCCNC3)cn1,inactive,,
N#Cc1ccc(S(=O)(=O)N2CC(n3cc(C(=O)NCc4ccccc4)nn3)C2)cc1,inactive,,

SMILES,Potency,outcome,"activity, negative = inhibition"
CCOc1ccc(C(=O)NCC(c2ccc(Cl)cc2)N2CCCCC2)cc1 (configuration not stated),"inconclusive: 17.8 µM [inhibitor, single point]",,
Cc1noc(C)c1C(=O)N1CCCCC1c1nc(CCOCC2CCCC2)no1 (configuration not stated),"inconclusive: 10 µM [inhibitor, single point]",,
COc1ccc(CN2CCOc3ccc(C(=O)NCc4ccccc4F)cc3C2)c(OC)c1,"inconclusive: 11.2 µM [inhibitor, single point]",,
CC(=O)C1=C(c2ccc(F)cc2)N(C(C)=O)n2c(nnc2C2CCCCC2)S1,"inconclusive: 3.55 µM [inhibitor, single point]",,
COc1ccc(CCC(=O)N2[C@@H]3CC[C@H]2CC(NC(=O)c2ccc(F)cc2)C3)cc1 (some centres not stated),"inconclusive: 17.8 µM [inhibitor, single point]",,
CCN1C(=O)COC[C@@H]1[C@H](O)c1ccc(NC(=O)c2ccc3c(c2)OCO3)cc1,"inconclusive: 11.2 µM [inhibitor, partial curve]",,
c1ccc(-c2nc3ccncc3[nH]2)nc1,"inconclusive: 20 µM [inhibitor, partial curve]",,
O=C(NC[C@H]1Cn2cc(-c3ccccc3)nc2CO1)c1ccccc1,"inconclusive: 10 µM [inhibitor, single point]",,
Cc1ccccc1C(=O)N1CCC2(C1)C(=O)N(CCc1ccccc1)c1ccccc12 (configuration not stated),inactive,,
CN(C(=O)Cn1ccn2nc(-c3ccccc3)c(CO)c2c1=O)c1ccccc1,inactive,,
CN(C)CCN(Cc1ccco1)C(=O)c1cc2c(s1)-c1ccccc1OC2,"inconclusive: 11.2 µM [inhibitor, single point]",,
CCOC(=O)N1CCc2c(sc3c2c(=O)n(-c2ccc(F)cc2)c(=O)n3CC(=O)c2ccc(Cl)cc2)C1,"inconclusive: 3.98 µM [inhibitor, single point]",,
CN(C)c1ccc2ncc(Nc3cc(F)cc(N4CCOCC4)c3)n2n1,active: 10 µM,,
C=CCNC(=O)[C@@H]1CCCN1C1(C(=O)NC)CCOCC1,inactive,,
COc1cc(OC)cc(OCc2nc3c(n2Cc2ccccc2)C(=O)N(Cc2ccccc2F)CCN3)c1,"inconclusive: 17.8 µM [inhibitor, single point]",,
Cc1cccc(N2C(=O)CSC23C(=O)N(CC(=O)Nc2cccc(Cl)c2)c2ccccc23)c1 (configuration not stated),active: 14.1 µM,,
COc1ccc(C2=C(C)C(=O)N(Cc3ccc(C(=O)NC(C)c4ccccc4)cc3)S2(=O)=O)cc1 (configuration not stated),"inconclusive: 17.8 µM [inhibitor, single point]",,
CCOc1ccc(N2CC(c3nc4ccccc4n3CCCCOc3ccc(OC)cc3)CC2=O)cc1 (configuration not stated),active: 12.6 µM,,
CCc1nc(C)sc1C(=O)N1C[C@@H](C(=O)O)[C@H](c2cccc(OC)c2)C1,"inconclusive: 0.398 µM [inhibitor, partial curve, poor fit]",,
CC1(C)[C@H]2CC[C@@H](CNC(=O)c3ccncc3)[C@@H]1C2,inactive,,
Cc1cc(C(=O)NC2CCCc3c2[nH]c2ccccc32)c2c(C)noc2n1 (configuration not stated),"inconclusive: 12.6 µM [inhibitor, single point]",,
Cc1ccc(C(=O)NC2CCCN(c3cc(-c4ccc(F)cc4)[nH]n3)C2)cn1 (configuration not stated),"inconclusive: 3.55 µM [inhibitor, single point]",,
C=CCN1CCN(C(=O)[C@@H]2Cc3c[nH]c4cccc(c34)[C@H](CC(C)C)N2)CC1,active: 11.2 µM,,

SMILES,Potency,outcome,"activity, negative = inhibition"
COc1ccc(-n2ccnc2CN(C)Cc2cc(C(C)C)on2)cc1,"inconclusive: 20 µM [inhibitor, single point]",,
Cc1nc(CN2CCN(c3ncc(F)c(N(C)C)n3)CC2)cs1,inactive,,
Cc1nc(-c2ccc(N(C)C)cc2)cc([C@H]2CN3CC[C@H]2C[C@@H]3CNC(=O)c2ccco2)n1,"inconclusive: 2.51 µM [inhibitor, full curve, poor fit]",,
Cn1ncc(CN2CCCC23CCN(c2ccc(C(F)(F)F)cn2)CC3)c1C1CC1,active: 11.2 µM,,
CCOC(=O)c1cc(C)n(CC2CCC(C(=O)Nc3cccc(Cl)c3)CC2)c1C (configuration not stated),"inconclusive: 1.12 µM [inhibitor, full curve]",,
O=C1CCN(C(=O)c2cccs2)CCCC(c2nc(-c3ccccc3)no2)CCN1 (configuration not stated),inactive,,
O=C(Nc1ccccc1Cl)C1CN(S(=O)(=O)C2CC2)CC12CCCCC2 (configuration not stated),"inconclusive: 17.8 µM [inhibitor, single point]",,
CSc1ccc(-c2cccc(CN)c2)cc1,active: 10 µM,,
O=C(CCC1CCCC1)N1CCCC(CN2CCCC2)CC1 (configuration not stated),"inconclusive: 11.2 µM [inhibitor, partial curve, poor fit]",,
CC(=O)Oc1c(-c2ccc(NC(=O)C3CC3)cc2)c(-c2ccc3c(c2)OCO3)nn1-c1cccc(C)c1,"inconclusive: 0.631 µM [inhibitor, full curve, poor fit]",,
CC(C)c1ccc(C2=CC(c3cccc(Cl)c3)n3c(nc4ccccc43)N2)cc1 (configuration not stated),active: 11.2 µM,,
CCc1c(C)sc2c1CCN(C(=O)Nc1ccccc1C(=O)OC)C2c1ccc(OC)cc1 (configuration not stated),inactive,,
CCOC(=O)c1cccc(Nc2nc(-c3ccccc3)no2)c1,inactive,,
COc1ccc(OC)c(C2Nc3c(C)cc(C)cc3-c3cc(C)nn32)c1 (configuration not stated),active: 0.251 µM,,
CCCC1(C2CCN(C(=O)C(OC)c3ccccc3)CC2)NC(=O)N(CCc2cccs2)C1=O (configuration not stated),inactive,,
COc1ccc(C)cc1NC(=O)c1c2c(nc3ccccc13)C(=O)N(C1CCCCC1)C2,"inconclusive: 17.8 µM [inhibitor, single point]",,
COCCC1(C(=O)O)CCCN(C(=O)N2CCN(C)CC2)C1 (configuration not stated),inactive,,
CC(C)c1noc(-c2cn(C3CCN(C(=O)c4ccco4)CC3)nn2)n1,inactive,,
CCOc1ccc(Br)cc1C1C(C(=O)OC)=C(C)NC2=C1C(=O)c1ccccc12 (configuration not stated),"inconclusive: 17.8 µM [inhibitor, single point]",,
CCN(C(=O)CSc1ncc2c(n1)-c1cc(Cl)ccc1N(Cc1ccccc1)S2(=O)=O)c1cccc(C)c1,"inconclusive: 3.98 µM [inhibitor, partial curve, poor fit]",,
Cc1nc(N2CCC(NC(=O)Cc3ccc(Cl)cc3)CC2)cc(C(F)(F)F)n1,inactive,,

# From PubChem BioAssay AID1347417 (National Center for Advancing Translational Sciences (NCATS), 2020)
